Laboratory results from publication PMC5579064, “1α,20S-Dihydroxyvitamin D3 Interacts with Vitamin D Receptor: Crystal Structure and Route of Chemical Synthesis” (Scientific Reports, 2017).

Columns and labels:
[1] = test system: IL1β; assay: IL1β production assay in splenocyte cultures (ELISA); assay type: cell-based; conditions: mouse splenocyte culture supernatant, LPS 100 ng/mL, secosteroid 100 nM, 24 h; control 123 ± 2
Method: Splenocytes were isolated from 7-week old C57BL/6 female mice and cultured at 2 × 10^6/mL, 500 μL/well, for 24 h at 37 °C in a humidified atmosphere. The vitamin D analogs or EtOH vehicle were added to the splenocyte cultures 2 h prior to addition of Lipopolysaccharide W E. coli 055:B5 (LPS) (Difco Lab. Defrost MI) 100 ng/mL or PBS vehicle. Harvested supernatants were analyzed for levels of murine IL1β by ELISA (R & D Systems Minneapolis, MN) according to the manufacturer’s instructions. Results are expressed as mean IL1β concentration ± SEM of triplicate determinations (pg/mL) of culture supernatant. The amount of EtOH in the EtOH + PBS and EtOH + LPS culture was equal to that in the cultures of the vitamin D analogs at a level of 10^-7 M. Culture medium was RPMI 1640 supplemented with 9% charcoal stripped fetal bovine serum, non-essential amino acids, HEPES buffer Glutamax, penicillin 100 μg/mL, streptomycin 100 μg/mL, fungizone 1 μg/mL (GIBCO, Grand Island, NY) and 50 μM β-mercaptoethanol (Sigma, St. Louis, MO). The difference in [IL1β] between control and D3 analog treatment was analyzed by one way ANOVA (Sigma Plot 13.0).

[2] = test system: IFNγ; assay: IFNγ production assay in splenocyte cultures (ELISA); assay type: cell-based; conditions: mouse splenocyte culture supernatant, secosteroid 1.0 nM, 72 h; control 710 ± 9
Method: All animal experiments in this study were performed in accordance with the NIH animal use guidelines and protocol (protocol No.: 15–043.0) approved by the Institutional Animal Care and Use Committee (IACUC) at the University of Tennessee Health Science Center (UTHSC, Memphis, TN). Splenocytes were isolated from 7-week old C57BL/6 female mice and cultured at 2 × 10^6/mL 500 μL/well for 72 h at 37 °C in a humidified atmosphere. Harvested supernatants were analyze for levels of murine IFNγ by ELISA (R & D Systems Minneapolis, MN) according to the manufacturer’s instructions. Results are expressed as mean [IFNγ] ± SEM of triplicate determinations (pg/mL) of culture supernatant. The difference in [IFNγ] between EtOH vehicle + anti-CD3e MOAB (0.08 μg/mL) and [IFNγ] in each of the cultures containing D3 analog was analyzed by one way ANOVA Sigma. The amount of EtOH in the EtOH + PBS and EtOH + anti-CD3e MOAB culture was equal to that in the cultures of the D3 analogs at a level of 10^−9 M. Culture medium was RPMI 1640 supplemented with 9% charcoal stripped fetal bovine serum, non-essential amino acids, HEPES buffer Glutamax, penicillin 100 μg/mL, streptomycin 100 μg/mL, fungizone 1 μg/mL (GIBCO, Grand Island, NY) and 50 μM β-mercaptoethanol (Sigma, St. Louis, MO)[35].

[3] = test system: CYP24A1 gene (mRNA); assay: Real-time PCR, CYP24A1 mRNA expression in HaCaT cells; conditions: 100 nM, 24 h
[4] = test system: TRPV6 gene (mRNA); assay: Real-time PCR, TRPV6 mRNA expression in HaCaT cells; conditions: 100 nM, 24 h
[5] = biological target: T1, VDR (Homo sapiens, UniProt P11473); assay: VDRE-reporter (luciferase) assay in Jurkat cells; conditions: read-out: VDRE stimulation, EC50 ± standard deviation, 24 h incubation
T1 sequence (P11473 1-427): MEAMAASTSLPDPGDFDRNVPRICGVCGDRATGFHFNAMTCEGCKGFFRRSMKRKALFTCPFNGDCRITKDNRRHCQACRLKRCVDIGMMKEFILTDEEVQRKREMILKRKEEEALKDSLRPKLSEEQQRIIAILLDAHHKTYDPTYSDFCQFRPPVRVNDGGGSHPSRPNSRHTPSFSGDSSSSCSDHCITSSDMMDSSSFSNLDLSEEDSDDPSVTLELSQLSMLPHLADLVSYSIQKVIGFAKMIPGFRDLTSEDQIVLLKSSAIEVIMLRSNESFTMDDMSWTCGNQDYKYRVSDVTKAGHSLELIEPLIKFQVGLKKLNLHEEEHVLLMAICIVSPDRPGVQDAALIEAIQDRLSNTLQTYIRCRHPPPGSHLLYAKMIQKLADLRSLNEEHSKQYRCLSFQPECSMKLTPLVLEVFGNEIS

[6] = biological target: T1, VDR; assay: VDRE-reporter (luciferase) assay in Caco-2 cells; conditions: read-out: VDRE stimulation, EC50 ± standard deviation, 24 h incubation
[7] = test system: VDR gene (mRNA); assay: Real-time PCR, VDR mRNA expression in HaCaT cells; conditions: 100 nM, 24 h

| Structure (SMILES) | Cytokine level IL1β (value ± SEM) [1] [pg/mL] | Cytokine level IFNγ (value ± SEM) [2] [pg/mL] | CYP24A1 mRNA levels, stimulation [3] [fold] | TRPV6 mRNA levels, increase [4] [fold] | EC50 [5] [nM] | EC50 [6] [nM] | VDR mRNA expression, upregulation [7] [fold] |
| --- | --- | --- | --- | --- | --- | --- | --- |
| C=C1/C(=C\C=C2/CCC[C@]3(C)[C@@H]([C@H](C)CCCC(C)(C)O)CC[C@@H]23)C[C@@H](O)C[C@@H]1O [1,25(OH)2D3, 1α,25-dihydroxyvitamin D3] | 121 ± 3 | 353 ± 11 | 10 | 1.4 |  |  |  |
| C=C1/C(=C\C=C2/CCC[C@]3(C)[C@@H]([C@H](C)OCCC(C)(C)O)CC[C@@H]23)C[C@@H](O)C[C@@H]1O [Compound 22-Oxa, 22-oxa-1,25(OH)2D3] | 91 ± 2 | 258 ± 2 | 78 | 2.6 | 1.2 ± 0.1 | 154.5 ± 0.8 | 1.7 |
